Reference: the supplement of paper PMC4967469
IC50 is the fitted dose that halves viability relative to control wells, and lower means more sensitive; fits outside the tested doses are given as limits. AUC, from the same fit, is the share of area under the viability curve across the 256-fold dose range; values near 1 show little effect. For some assays here: A top dose marked as inferred was calculated from the reported fits.

Assays:
Assay in all cases: Viability of human cancer cell lines after 72 h of drug (GDSC screen)
Sorafenib = compound: CNC(=O)c1cc(Oc2ccc(NC(=O)Nc3ccc(Cl)c(C(F)(F)F)c3)cc2)ccn1 [Sorafenib]; settings: top dose 4 µM
Protocol: (§1)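 Human cancer cell lines in 384-well plates, medium with 10% serum, drug for 72 h over a 256-fold dose range (nine 2-fold or five 4-fold steps up to the top dose). Adherent lines were fixed and stained with the nucleic acid dye Syto60, suspension lines read with resazurin; signal relative to control wells, capped at 0 and 100%. One two-parameter sigmoid per drug and line, fitted in a mixed model over all curves with the slope shared within a line.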

XMD14-99 = compound: COc1cc(N2CCN(C)CC2)ccc1Nc1nc(N)c(C(=O)c2c(Cl)cccc2Cl)s1 [XMD14-99]; settings: top dose 10.24 µM; top dose inferred
Protocol: as §1

FH535 = compound: Cc1cc([N+](=O)[O-])ccc1NS(=O)(=O)c1cc(Cl)ccc1Cl [FH535]; settings: top dose 32 µM; top dose inferred
Protocol: as §1

A-443654 = compound: Cc1n[nH]c2ccc(-c3cncc(OC[C@@H](N)Cc4c[nH]c5ccccc45)c3)cc12 [A-443654]; settings: top dose 1.024 µM; top dose inferred
Protocol: as §1

Dasatinib = compound: Cc1nc(Nc2ncc(C(=O)Nc3c(C)cccc3Cl)s2)cc(N2CCN(CCO)CC2)n1 [Dasatinib]; settings: top dose 1.28 µM
Protocol: as §1

AT-7519 = compound: O=C(NC1CCNCC1)c1n[nH]cc1NC(=O)c1c(Cl)cccc1Cl [AT-7519]; settings: top dose 10.24 µM; top dose inferred
Protocol: as §1

Cell Line	AUC (Sorafenib)	IC50 (Sorafenib) [µM]	AUC (XMD14-99)	IC50 (XMD14-99) [µM]	AUC (FH535)	IC50 (FH535) [µM]	AUC (A-443654)	IC50 (A-443654) [µM]	AUC (Dasatinib)	IC50 (Dasatinib) [µM]	AUC (AT-7519)	IC50 (AT-7519) [µM]
GR-ST (lymphoblastic leukaemia, suspension)	0.975	> 4	0.896	> 10.2	0.739	11.3	0.783	0.531	0.933	> 1.28	0.399	0.317
GRANTA-519 (B-cell lymphoma, suspension)	0.98	> 4	0.988	> 10.2	0.818	15.7	0.781	0.381	0.951	> 1.28	0.512	0.687
GT3TKB (stomach, adherent)	0.975	> 4	0.987	> 10.2	0.587	3.36	0.804	0.441	0.958	> 1.28	0.863	7.21
HCC1599 (breast, suspension)	0.956	> 4	0.968	> 10.2	0.76	12.9	0.639	0.165	0.96	> 1.28	0.352	0.233
HDLM-2 (Hodgkin lymphoma, suspension)	0.961	> 4	0.989	> 10.2	0.697	7.06	0.947	> 1.02	0.989	> 1.28	0.412	0.369
HH (T-cell leukaemia, suspension)	0.918	> 4	0.855	> 10.2	0.785	18.8	0.688	0.258	0.961	> 1.28	0.256	0.0993
HT (B-cell lymphoma, suspension)	0.951	> 4	0.989	> 10.2	0.566	2.99	0.755	0.323	0.979	> 1.28	0.442	0.451
HT-144 (melanoma, adherent)	0.853	3.71	0.974	> 10.2	0.552	2.82	0.628	0.15	0.679	0.27	0.957	> 10.2
IMR-5 (neuroblastoma, adherent)	0.99	> 4	0.878	7.6	0.777	10.8	0.745	0.28	0.94	> 1.28	0.577	1
IST-MES1 (mesothelioma, adherent)	0.855	3.22	0.972	> 10.2	0.642	4.95	0.882	> 1.02	0.492	0.0759	0.907	> 10.2
IST-SL2 (small cell lung carcinoma, suspension)	0.84	2.72	0.912	> 10.2	0.715	8.06	0.667	0.185	0.704	0.299	0.51	0.681
JJN-3 (haematopoietic neoplasm, suspension)	0.89	3.16	0.967	> 10.2	0.69	6.09	0.798	0.389	0.922	> 1.28	0.7	2.07
JVM-2 (lymphoid neoplasm, suspension)	0.969	> 4	0.98	> 10.2	0.914	> 32	0.884	> 1.02	0.773	0.614	0.742	3.78
JiyoyeP-2003 (Burkitt lymphoma, suspension)	0.905	> 4	0.991	> 10.2	0.665	5.38	0.662	0.169	0.82	0.619	0.401	0.356
K5 (thyroid, adherent)	0.964	> 4	0.988	> 10.2	0.629	4.47	0.802	0.478	0.604	0.152	0.814	5.27
KALS-1 (glioma, adherent)	0.97	> 4	0.975	> 10.2	0.667	6.95	0.671	0.231	0.542	0.108	0.443	0.423
KE-37 (lymphoblastic leukaemia, suspension)	0.918	3.51	0.89	6.96	0.721	7.03	0.581	0.101	0.989	> 1.28	0.19	0.105
KGN (ovary, adherent)	0.88	> 4	0.927	> 10.2	0.6	3.99	0.597	0.126	0.31	0.0207	0.676	2.22
KINGS-1 (glioma, adherent)	0.964	> 4	0.976	> 10.2	0.804	23.7	0.726	0.363	0.582	0.146	0.838	> 10.2
KNS-42 (glioma, adherent)	0.922	> 4	0.982	> 10.2	0.722	9.76	0.734	0.345	0.814	0.873	0.93	> 10.2
KNS-81-FD (glioma, adherent)	0.956	> 4	0.975	> 10.2	0.748	13.6	0.898	> 1.02	0.963	> 1.28	0.888	> 10.2
L-540 (Hodgkin lymphoma, suspension)	0.867	2.97	0.976	> 10.2	0.67	5.59	0.773	0.354	0.969	> 1.28	0.563	0.93

Cell Line	AUC (Sorafenib)	IC50 (Sorafenib) [µM]	AUC (XMD14-99)	IC50 (XMD14-99) [µM]	AUC (FH535)	IC50 (FH535) [µM]	AUC (A-443654)	IC50 (A-443654) [µM]	AUC (Dasatinib)	IC50 (Dasatinib) [µM]	AUC (AT-7519)	IC50 (AT-7519) [µM]
L-1236 (Hodgkin lymphoma, suspension)	0.939	> 4	0.989	> 10.2	0.89	26.7	0.756	0.302	0.992	> 1.28	0.883	8.04
LAMA-84 (chronic myeloid leukaemia, suspension)	0.769	1.53	0.934	> 10.2	0.682	6.5	0.827	0.637	0.035	< 0.005	0.796	4.88
LAN-6 (neuroblastoma, adherent)	0.91	> 4	0.977	> 10.2	0.783	16.2	0.891	> 1.02	0.968	> 1.28	0.904	> 10.2
LB996-RCC (kidney, adherent)	0.86	> 4	0.983	> 10.2	0.681	7.03	0.606	0.132	0.255	0.014	0.944	> 10.2
LB1047-RCC (kidney, adherent)	0.964	> 4	0.964	> 10.2	0.651	5.54	0.655	0.183	0.257	0.0146	0.73	3.18
LB2241-RCC (kidney, adherent)	0.844	3.36	0.982	> 10.2	0.549	2.76	0.909	> 1.02	0.677	0.266	0.984	> 10.2
LB2518-MEL (melanoma, adherent)	0.735	1.22	0.985	> 10.2	0.437	1.34	0.734	0.311	0.604	0.157	0.747	3.43
LP-1 (myeloma, suspension)	0.895	3.38	0.917	> 10.2	0.693	6.24	0.935	> 1.02	0.974	> 1.28	0.445	0.467
LS-123 (large intestine, adherent)	0.966	> 4	0.972	> 10.2	0.701	8.96	0.761	0.48	0.584	0.147	0.705	2.96
LS-513 (large intestine, adherent)	0.954	> 4	0.98	> 10.2	0.8	16.2	0.944	> 1.02	0.96	> 1.28	0.845	7.88
LS-1034 (large intestine, adherent)	0.98	> 4	0.954	> 10.2	0.653		0.819	0.659	0.986	> 1.28	0.9	> 10.2
LU-134-A (small cell lung carcinoma, suspension)	0.98	> 4	0.986	> 10.2	0.985	> 32	0.735	0.314	0.987	> 1.28	0.568	0.997
LU-139 (small cell lung carcinoma, suspension)	0.9	> 4	0.918	> 10.2	0.756	13.9	0.764	0.477	0.982	> 1.28	0.4	0.315
ME-1 (acute myeloid leukaemia, suspension)	0.907	> 4	0.987	> 10.2	0.811	18.5	0.911	> 1.02	0.989	> 1.28	0.98	> 10.2
MHH-NB-11 (neuroblastoma, adherent)	0.863	> 4	0.892	> 10.2	0.914	> 32	0.835	0.768	0.957	> 1.28	0.561	0.954
MHH-PREB-1 (B-cell leukaemia, suspension)	0.875	3.22	0.989	> 10.2	0.663	5.37	0.725	0.256	0.719	0.308	0.325	0.221
MLMA (hairy cell leukaemia, semi-adherent)	0.984	> 4	0.986	> 10.2	0.744	10.1	0.771	0.397	0.58	0.133	0.303	0.178
MN-60 (B-cell leukaemia, suspension)	0.964	> 4	0.937	> 10.2	0.84	23.4	0.841	0.754	0.917	> 1.28	0.526	0.754
MONO-MAC-6 (acute myeloid leukaemia, suspension)	0.195	0.029	0.891	> 10.2	0.656	5.59	0.531	0.0782	0.855	1.11	0.272	0.137
MPP-89 (mesothelioma, adherent)	0.905	> 4	0.982	> 10.2	0.729	11.1	0.805	0.711	0.428	0.048	0.95	> 10.2
MY-M12 (leukaemia, suspension)	0.804	2.32	0.947	> 10.2	0.67	6.37	0.615	0.139	0.076	< 0.005	0.335	0.208
